Laboratory results published in the supplement of paper PMC12217912.
The list shows a part of the results. Sequences were assembled here from the parent chain. Inactive controls read about 0.05.

B1: TEV protease; numbered along this chain (parent)
chain: MGESLFKGPRDYNPISSSICHLTNESDGHTTSLYGIGFGPFIITNKHLFRRNNGTLVVQSLHGVFKVKDTTTLQQHLVDGRDMIIIRMPKDFPPFPQKLKFREPQREERICLVTTNFQTKSMSSMVSDTSCTFPSGDGIFWKHWIQTKDGQCGSPLVSTRDGFIVGIHSASNFTNTNNYFTSVPKNFMELLTNQEAQQWVSGWRLNADSVLWGGHKVFMVKPEEPFQPVKEATQL

Variants of: B1
Experiment: raw area under fraction-flipped curve 0-4 h after induction (AUC4h, not background-subtracted), DNA-recorder readout of cleavage of the substrate (dimensionless); higher = more cleavage of the substrate by the protease variant
Conditions: temperature: 34 °C; time window: 0-4 h after rhamnose induction
Protocol: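 In vivo DNA recorder in E. coli TOP10(DE3) ΔrhaA at 34 °C. Each TEVp single-site mutant (parent TEVp 0) is paired with a single-site variant of the 7-mer TEVs (canonical ENLYFQ|S). The substrate sits between flexible linkers in a Bxb1-sfGFP-TEVs-SsrA fusion, so cleavage stabilises Bxb1 and speeds flipping of a recombination array, read by NGS. The value is the raw area under the fraction-flipped curve over 0-4 h after rhamnose induction (AUC4h), with ≥20 reads per time point. It is not background-subtracted; inactive controls average about 0.047.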
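Further: Bxb1 expression induced with 0.2% (w/v) L-rhamnose at OD600 near 0.5, cultures sampled hourly, flipped fraction per protease–substrate barcode pair counted by paired-end Illumina sequencing.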

Variant	area with substrate ENLYFAS	area with substrate ENLYFCS	area with substrate ENLYFES	area with substrate ENLYFFS	area with substrate ENLYFHS	area with substrate ENLYFIS	area with substrate ENLYFKS	area with substrate ENLYFMS	area with substrate ENLYFNS	area with substrate ENLYFPS	area with substrate ENLYFRS	area with substrate ENLYFSS	area with substrate ENLYFVS	area with substrate ENLYFYS	area with substrate ENLYFDS	area with substrate ENLYFTS	area with substrate ENLYFLS	area with substrate ENLYFWS	area with substrate ENLYFGS
V183D	0.0549	0.0484	0.0564	0.0555	0.0487	0.0449	0.0645	0.0542	0.0536	0.0579	0.0572	0.0394	0.0572	0.0543	–	–	–	–	–
V183P	0.0538	0.041	–	0.0625	–	0.0626	0.0618	0.048	0.0841	0.0524	–	0.0678	0.0485	0.0509	0.0564	0.0628	–	–	–
W199P	0.0543	0.0598	0.0619	0.0714	0.054	0.0582	0.0555	0.061	–	0.0289	0.0645	0.0657	–	–	–	0.0592	0.0602	0.0658	–
W199F	0.0469	0.0327	0.0531	0.0567	–	0.063	0.0734	0.057	0.072	0.0641	0.0546	0.0778	0.0649	–	0.0541	0.0612	0.0645	0.0519	0.0493
S171H	0.054	0.0501	0.0587	0.0688	0.0582	0.0609	0.0498	0.0589	0.0623	0.0577	0.0675	0.0714	0.0758	0.0569	0.0619	–	0.0621	0.0536	–
S171C	0.0629	–	0.0627	0.0681	–	0.0546	0.0455	0.0759	0.0657	0.0523	0.0559	0.0616	0.0182	–	–	0.0237	0.079	0.0492	–
L205H	0.0682	0.0513	0.0582	–	–	0.0706	0.0695	0.0593	–	0.0575	–	–	–	–	0.0573	–	0.0611	–	–
I164Q	0.0539	0.0392	0.0533	0.0527	0.0543	0.0572	0.0482	0.0555	–	0.0484	0.0489	0.0543	0.0606	0.0602	0.0546	0.045	–	–	–
G213R	0.0505	0.059	0.055	0.0664	–	0.0554	0.0496	–	–	0.0541	0.0543	0.0661	–	0.0581	0.0424	0.0552	0.052	–	0.0574
G166F	0.0514	0.0353	0.0588	–	0.0535	0.0544	–	0.0618	0.0484	0.0403	0.042	0.0518	0.0451	0.0618	–	0.0432	–	–	–
G166W	0.0561	–	0.0174	0.0492	–	0.0524	0.0554	0.0477	0.0584	0.0589	0.0492	0.054	0.0661	–	–	0.0317	–	–	0.0488
G202R	0.0676	–	0.0562	0.0594	–	0.0574	0.0649	0.0668	0.0792	0.0446	0.063	–	0.0551	–	–	0.0611	–	–	0.0646
V210N	0.0829	–	0.0537	0.0747	–	0.0622	0.0569	0.0738	0.0784	0.0571	–	–	0.0579	0.0542	–	0.0747	–	0.0649	0.0816
V220E	0.0631	0.0482	0.0537	0.0571	0.0615	0.0615	0.0691	0.109	0.0817	–	0.0422	0.0595	0.0614	–	–	–	–	0.071	0.064
V220G	0.0608	0.0646	0.0841	0.0665	–	0.058	0.058	0.0655	0.0678	0.0567	0.0633	0.0505	0.105	0.0689	–	0.0524	–	–	0.0654
A207T	0.0619	0.0558	0.0573	0.0637	0.002	0.0632	0.0656	0.0698	0.0675	0.0651	0.0613	0.06	–	0.0627	–	–	–	0.0568	0.0643
Q198L	0.0577	0.0532	0.0607	0.0571	–	0.0463	0.0667	0.0667	0.0676	0.0486	–	0.0474	0.0719	–	0.0613	0.0359	–	–	0.0729
Q198A	0.0628	0.0766	0.0545	–	0.0516	0.0601	0.0387	0.0597	0.0773	0.0605	–	–	–	0.0573	–	–	0.059	0.0533	–
Y179A	0.0579	–	–	0.0606	0.0551	0.0413	0.0706	0.0599	–	0.0666	–	0.0805	–	–	–	0.0552	–	–	–
P184F	0.0408	0.0511	0.0526	0.0647	0.0592	0.0521	–	0.0167	–	0.0619	–	0.0499	0.0607	–	0.0706	0.0579	–	0.0576	0.0673
Q197V	0.0632	0.0483	0.0639	0.0636	0.0523	0.0556	–	0.0665	0.0587	0.0654	0.0548	0.0818	–	0.0629	0.0671	–	0.0613	–	0.0522
F173H	0.0598	0.051	0.0632	0.0716	0.0624	0.0528	0.0813	0.0603	0.0595	0.0616	0.0026	0.0494	0.057	0.053	0.0598	–	0.0567	0.0541	0.0599
N177I	0.065	–	0.0715	0.0698	0.0604	0.0518	–	0.0675	0.0673	0.052	0.0861	–	–	–	0.0607	0.0493	–	–	0.0712
N177C	0.0342	0.0501	0.08	0.0685	0.0758	0.0593	0.0726	0.0719	–	–	–	0.026	0.0518	–	–	0.0402	0.0582	0.0622	–
N177P	0.0568	0.0573	0.0597	0.0486	0.0441	0.0628	0.0584	0.065	0.0503	0.0624	–	0.0669	0.0547	0.0616	0.0754	0.0593	0.0697	–	–
